Measured values published in the RNAGym collection of RNA variant scans (doi:10.1073/pnas.2313332121).
This sample is rich in variants without activity.

B1: TPR 5TU (parent)
chain: GGAUCUUCUCGAUCUAACAAAAAAGACAAAUCUGCCACAAAGCUUGAGAGCAUCUUCGGAUGCAGAGGCGGCAGCCUUCGGUGGCGCGAUAGCGCCAACGUUCUCAACUAUGACACGCAAAACGCGUGCUCCGUUGAAUGGAGUUUAUCAUG

Variants of: B1
Assay: polymerase ribozyme fitness, log enrichment relative to wild type (log ratio); higher = more active; in vitro selection for triplet polymerase activity
Summary of the method: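 The heterodimeric triplet polymerase ribozyme's subunits were each mutagenized into PCR-built libraries and transcribed. Every library was selected once, in triplicate, by annealing with a biotinylated primer, the partner subunit and triplets, incubating frozen at −7 °C, gel-excising extended constructs, capturing on streptavidin beads and running RT-PCR. Input and output libraries were Illumina-sequenced, with genotypes kept only at ≥10 input reads and ≥1 read per output. Fitness, from inverse-variance-weighted replicate averages, is the base-2 logarithm of genotype enrichment over wild-type enrichment.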

U15G A60G C87G C103G A147C and A16U A28C C54U G71U G92C C131U G136C cannot be ordered by “polymerase ribozyme fitness (log ratio)” value: ≤ -4.2 for the first, ≤ -4.2 for the second.

C14U A40G G58C G59C G68C G80A G94A and C14U U15A A17C A30G C76A G86A A91U C95G A113G cannot be ordered by “polymerase ribozyme fitness (log ratio)” value: ≤ -4.2 for the first, ≤ -4.2 for the second.

C14U C76U C87A C95U U101C and U15C A28C A39G G65U U82C U130A cannot be ordered by “polymerase ribozyme fitness (log ratio)” value: ≤ -4.2 for the first, ≤ -4.2 for the second.

Compared with U15G A23C A39C C76A C123U U134G, A16U A150G is higher in “polymerase ribozyme fitness (log ratio)” value: ≤ -4.2 for the first, -2.95 for the second.

U15G A52C U55G A66C C85G C131G U134A and C14U G59C C93U A122G A137C U146G cannot be ordered by “polymerase ribozyme fitness (log ratio)” value: ≤ -4.2 for the first, ≤ -4.2 for the second.

A16G A22U U77C C96U and U15G G50U U61A C93G C105U A107G cannot be ordered by “polymerase ribozyme fitness (log ratio)” value: ≤ -4.2 for the first, ≤ -4.2 for the second.

C14U C85A C103G C114A and C14U A41C A66G C76U G84C C114U C125A cannot be ordered by “polymerase ribozyme fitness (log ratio)” value: ≤ -4.2 for the first, ≤ -4.2 for the second.

A16U A26G G68C C108A U111G C123U C125U U144G and C14U C35G G50U U55A C85G A98U A106G cannot be ordered by “polymerase ribozyme fitness (log ratio)” value: ≤ -4.2 for the first, ≤ -4.2 for the second.

U15G C87A and A16G G81A G83A C93U G128C U134G cannot be ordered by “polymerase ribozyme fitness (log ratio)” value: ≤ -4.2 for the first, ≤ -4.2 for the second.

U15A A47C G48C G58C C125U G140A and U15G A40U U56C C57A G94A C125G G140U cannot be ordered by “polymerase ribozyme fitness (log ratio)” value: ≤ -4.2 for the first, ≤ -4.2 for the second.

U15A G74U C99U C123A and U15G G42U G88C cannot be ordered by “polymerase ribozyme fitness (log ratio)” value: ≤ -4.2 for the first, ≤ -4.2 for the second.

Going from U15C G80C C93G C116G to U15G A29G C76G G84C C96U C99U A120U, the “polymerase ribozyme fitness (log ratio)” value falls from -4.05 to ≤ -4.2.

Going from A16C A73G G92A to A16U A29G A30U U53A U55A G62C U77G C116U, the “polymerase ribozyme fitness (log ratio)” value falls from -3.3 to ≤ -4.2.

U15G C32A G42U G83U and U15G C27U C54A U56A C72U G80A G81U U90C G92U cannot be ordered by “polymerase ribozyme fitness (log ratio)” value: ≤ -4.2 for the first, ≤ -4.2 for the second.

First: C14G U56G C57U C63U C72U U151G
Second: C14U A40G U56A G59C C76U A121U
The “polymerase ribozyme fitness (log ratio)” value of the first is lower: ≤ -4.2 for the first, -4.02 for the second.

First: A16C C38A C72G C93U
Second: A16G A19G G84U A122U
The “polymerase ribozyme fitness (log ratio)” value of the first is lower: ≤ -4.2 for the first, -3.73 for the second.

First: C14U A17U C95U C108G
Second: U15A U145C
The “polymerase ribozyme fitness (log ratio)” value of the first is lower: ≤ -4.2 for the first, 0.0727 for the second.

A16C A113U C118G and C14U C93A are within 0.2 log units of each other in “polymerase ribozyme fitness (log ratio)” value: -3.27 for the first, -3.4 for the second.

U15C C27G U33A C75G G88A G136C and C14U A24U C35U U61C G83C C123G cannot be ordered by “polymerase ribozyme fitness (log ratio)” value: ≤ -4.2 for the first, ≤ -4.2 for the second.

U15C A41C G42A A47G C93U A110U G112U and U15A C75G U78G C87A C95A U139G cannot be ordered by “polymerase ribozyme fitness (log ratio)” value: ≤ -4.2 for the first, ≤ -4.2 for the second.

C14U A24C U53A G67U C108U A150G and U15C U33C A39U G59U G80U A120C cannot be ordered by “polymerase ribozyme fitness (log ratio)” value: ≤ -4.2 for the first, ≤ -4.2 for the second.

U15C U78A U90A A106C and C14U A37C U56A A73C G74U A91C C116A A119C cannot be ordered by “polymerase ribozyme fitness (log ratio)” value: ≤ -4.2 for the first, ≤ -4.2 for the second.

A16G C57U C93U A142G U146C C149A A150C and A16C U31A C32A G92C A97C A98C C103A C116U C125U cannot be ordered by “polymerase ribozyme fitness (log ratio)” value: ≤ -4.2 for the first, ≤ -4.2 for the second.

C14U U55A C75U C76U and A16U A24C G48U G81A C95U C96A C123U cannot be ordered by “polymerase ribozyme fitness (log ratio)” value: ≤ -4.2 for the first, ≤ -4.2 for the second.

A16G A26U C35A C51G U61A C72G C93U A120U C129G and U15C G50A C57G G71C G117C cannot be ordered by “polymerase ribozyme fitness (log ratio)” value: ≤ -4.2 for the first, ≤ -4.2 for the second.

A16G C93A A97G and A16G A30G A73U C95G G136C cannot be ordered by “polymerase ribozyme fitness (log ratio)” value: ≤ -4.2 for the first, ≤ -4.2 for the second.

A16C A22U G62A G74A G81C A106G G141C and C14U G46A A49U C76G A121G C131G cannot be ordered by “polymerase ribozyme fitness (log ratio)” value: ≤ -4.2 for the first, ≤ -4.2 for the second.

U15C U53C G59U A64G C99G C125G A137C and U15G A41C A47C U55G C76A G81C C87G C96A G126U cannot be ordered by “polymerase ribozyme fitness (log ratio)” value: ≤ -4.2 for the first, ≤ -4.2 for the second.

U15C C76A U78A C103G A122G and C14U A17U A24G A41C C51U U56A C93A A115C cannot be ordered by “polymerase ribozyme fitness (log ratio)” value: ≤ -4.2 for the first, ≤ -4.2 for the second.

A16C C27U A47C A60C A91U C103A C125U A138G G141A A142U U144C and A16G U45A C72U C93G U151A cannot be ordered by “polymerase ribozyme fitness (log ratio)” value: ≤ -4.2 for the first, ≤ -4.2 for the second.

Compared with U15C G65C A137C C149U U151G, A16G A40C is higher in “polymerase ribozyme fitness (log ratio)” value: ≤ -4.2 for the first, -0.456 for the second.

U15C A23C A30G A47G A60G G86C G88U U101G and A16G A37C G65U cannot be ordered by “polymerase ribozyme fitness (log ratio)” value: ≤ -4.2 for the first, ≤ -4.2 for the second.

Going from U15G C96U to A16C C35U A41U C87G, the “polymerase ribozyme fitness (log ratio)” value falls from -1.19 to ≤ -4.2.

U15G G42A G83U G100C and C14U A22C G50U C57A C76G C99U U102C C131U U148G cannot be ordered by “polymerase ribozyme fitness (log ratio)” value: ≤ -4.2 for the first, ≤ -4.2 for the second.

A16C C18G A40U U77C C85U C103A and C14U G68U G124C U145G cannot be ordered by “polymerase ribozyme fitness (log ratio)” value: ≤ -4.2 for the first, ≤ -4.2 for the second.

C14U A26C G48C U53G C54A C93A U145A U148C and C14U A41C C75G G84U C118A cannot be ordered by “polymerase ribozyme fitness (log ratio)” value: ≤ -4.2 for the first, ≤ -4.2 for the second.

A16C A19C C51U A64G C72A U77A G84U and U15A U44A U56A A64C A73G C76A C93U A107G U151A cannot be ordered by “polymerase ribozyme fitness (log ratio)” value: ≤ -4.2 for the first, ≤ -4.2 for the second.

A16C A20U C51A C57U C95G and C14U A22G A47C C51U G86C cannot be ordered by “polymerase ribozyme fitness (log ratio)” value: ≤ -4.2 for the first, ≤ -4.2 for the second.

Going from A16C A49U C85A G126U U139G to U15G G48A A73C G92C U111A C118G A138U, the “polymerase ribozyme fitness (log ratio)” value falls from -3.47 to ≤ -4.2.

U15A G50U C95U C99G C105U A115G A150C and C14U A17U A19C U44A G68A A73G G86U C96U C149G cannot be ordered by “polymerase ribozyme fitness (log ratio)” value: ≤ -4.2 for the first, ≤ -4.2 for the second.

Going from A16C G92C to A16C G42U U56C G81U C85G, the “polymerase ribozyme fitness (log ratio)” value falls from -1.11 to ≤ -4.2.

For U15C A19C A91U, the “polymerase ribozyme fitness (log ratio)” value was -3.68.
